{"source": "PubChem BioAssay AID652106", "about": "(National Center for Advancing Translational Sciences (NCATS), 2013)", "note": "Out of some 370,000 compounds screened, about 500 (0.14%) were called active. This list was built around the results that the source calls inconclusive (neither active nor inactive); the mix of calls is not that of the screen. Calls follow the shape of the dose curve; as a rule, active = well fitted activation curve with a large enough effect; inconclusive = small, poorly fitted or top-dose-only effect; inactive = no such curve, though single readings can be large or run the other way. No potency is given beside an inconclusive call; the fits are too rough. Potency is read from the fitted curve at half-maximal effect; tags tell the direction and shape of the fitted curve."}
{"assay": "qHTS of alpha-syn Inhibitors; also: nearly all actives have a fitted effect of over 65% in size; as to growth rescue (activation): % of control where 0% means no effect", "settings": "Yeast expressing alpha-synuclein, BacTiter-Glo, 24 h; Potency: growth rescue unless noted; growth rescue (activation): at 46.1 µM (top of the series) unless noted", "in_short": "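Screening used galactose-induced yeast with toxic alpha-synuclein levels, exposed to compound for 24 hr at 30 deg C. Cell growth, read with BacTiter-Glo luminescence, gave the measured signal.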"}
{"molecule": "CCOc1ccc(NC(=O)CN(C)C(=O)CCc2nc3ccccc3c(=O)[nH]2)cc1OCC", "Potency": "inconclusive [activator, single point]"}
{"molecule": "CCc1ccccc1N1CSC2=C(C#N)C(c3cc(OC)c(OC)cc3OC)CC(=O)N2C1", "note": "(stereo not drawn)", "Potency": "inactive"}
{"molecule": "CC1=NN(c2ccc(C(F)(F)F)cn2)C(=O)C1", "Potency": "inconclusive [activator, single point]"}
{"molecule": "COCC(C)n1c(C)cc(C(=O)CN2C(=O)NC(Cc3c[nH]c4ccccc34)C2=O)c1C", "note": "(stereo not drawn)", "Potency": "inactive"}
{"molecule": "Cn1cc([C@]2(O)C(=O)N(c3ccccc3)c3ccccc32)c2ccccc21", "Potency": "inconclusive [activator, single point]"}
{"molecule": "OCCNc1nc(-c2cccs2)nc2ccccc12", "Potency": "inactive"}
{"molecule": "O=S(=O)(Nc1ccccc1O)c1ccc(-c2ccccc2)cc1", "Potency": "inconclusive [activator, partial curve]"}
{"molecule": "O=C(/C=C/C=C/c1ccccc1)CC1(O)C(=O)N(CCc2ccccc2)c2ccccc21", "note": "(stereo not drawn)", "Potency": "inconclusive [activator, single point]"}
{"molecule": "COc1ccc2c(c1)C/C(=C\\c1ccc(N(C)C)cc1)C2=O", "Potency": "inactive"}
{"molecule": "Cc1ccccc1-c1ccc2c(c1)O[C@@H](CN(C)Cc1ccc(C(=O)O)cc1)[C@@H](C)CN([C@H](C)CO)S2(=O)=O", "Potency": "inconclusive [activator, single point]"}
{"molecule": "CO/N=C(/CS(=O)Cc1ccccc1Cl)c1ccc(Cl)cc1Cl", "note": "(stereo not drawn)", "Potency": "inconclusive [activator, single point]"}
{"molecule": "CN(C)/C=N/n1cnc2ccccc2c1=O", "Potency": "inactive"}
{"molecule": "O=C1CCCN2N=C(SCC(=O)N3N=C(c4ccc(Br)cc4)CC3c3ccc(F)cc3)SC2=N1", "note": "(stereo not drawn)", "Potency": "inconclusive [activator, single point]"}
{"molecule": "Nc1ccccc1SC(CC(=O)c1ccccc1)c1ccccc1", "note": "(stereo not drawn)", "Potency": "inactive"}
{"molecule": "COc1ccc(NC(=O)CN(C)C(=O)COc2ccccc2Cc2ccccc2)cc1", "Potency": "inconclusive [activator, single point]"}
{"molecule": "CCOC(=O)C1CCCN(C2CC(=O)N(c3ccc(C)cc3)C2=O)C1", "note": "(stereo not drawn)", "Potency": "inconclusive [activator, single point]"}
{"molecule": "CC1(Cc2ccccc2Cl)C(=O)Nc2c(Cl)ccc(Cl)c21", "note": "(stereo not drawn)", "Potency": "active: 12.6 µM"}
{"molecule": "O=C(N/N=C/c1cccc(Oc2ccccc2)c1)c1ccncc1", "Potency": "inactive"}
{"molecule": "O=C(CCCc1nc(-c2ccc(Cl)cc2)no1)Nc1cccnc1", "Potency": "inconclusive [activator, single point]"}
{"molecule": "CN(C)c1ccc(C(=O)Nc2nnc(-c3ccc(Cl)cc3)o2)cc1", "Potency": "inconclusive [activator, partial curve]"}
{"molecule": "CN(C)CC(=O)Nc1nc(-c2ccccc2)cs1", "Potency": "inactive"}
{"molecule": "O=C(c1ccc(-c2ccccc2)cc1)C1CCCN(C(=O)c2ccncc2)C1", "note": "(stereo not drawn)", "Potency": "inconclusive [activator, single point]"}
{"molecule": "CCS(=O)(=O)N1Cc2ccccc2CC1C(=O)Nc1nccs1", "note": "(stereo not drawn)", "Potency": "inconclusive [activator, single point]"}
{"molecule": "COC(=O)C1=NN(C(=O)c2cccc(Cl)c2)C(O)(C(C)(C)C)C1", "note": "(stereo not drawn)", "Potency": "inconclusive [activator, single point]"}
{"molecule": "COc1ccc(-c2nc(N3CCOCC3)nc3n[nH]c(N)c23)cc1", "Potency": "inconclusive [activator, single point]"}
{"molecule": "Cc1ccc(C(=O)NCCCNC(=O)c2ccco2)cc1", "Potency": "inconclusive [activator, single point]"}
{"molecule": "Cn1nc(C2CC2)cc1NC(=O)C1(C)CCN1C(=O)Cc1ccc(-c2ccccc2)cc1", "note": "(stereo not drawn)", "Potency": "inconclusive [activator, single point]"}
{"molecule": "O=C(Nc1ccsc1C(=O)NC1CC1)c1ccccc1", "Potency": "inactive"}
{"molecule": "CC(C)Oc1cccc(NC(=O)C2(C)CCN2C(=O)C(C)C)c1", "note": "(stereo not drawn)", "Potency": "inconclusive [activator, single point]"}
{"molecule": "Cc1ccc2c(Cl)cc(Cl)c(O)c2n1", "growth rescue (activation)": "inconclusive: -47.2% [activator]"}
{"molecule": "CCOC(=O)C1=C(C)NC(=O)NC1c1ccco1", "note": "(stereo not drawn)", "Potency": "inconclusive [activator, single point]"}
{"molecule": "O=C(c1ccc2c(=O)n3c(nc2c1)CCCCC3)N1CCN(c2cccc(Cl)c2)CC1", "Potency": "inactive"}
{"molecule": "Cc1cc(C)c(C(O)c2ncc(-c3cccc4ccccc34)[nH]2)c(C)c1", "note": "(stereo not drawn)", "Potency": "inconclusive [activator, single point]"}
{"molecule": "NC(=S)N/N=C/c1ncc(C(F)(F)F)cc1Cl", "Potency": "inconclusive [activator, single point]"}
{"molecule": "CCCn1c(=O)c(C(=O)Nc2ncccc2C)c(O)c2ccccc21", "Potency": "inconclusive [activator, single point]"}
{"molecule": "COc1cccc(-n2c(SCC(=O)Nc3c(C)cc(C)cc3C)nc3c([nH]c4ccccc43)c2=O)c1", "Potency": "inconclusive [activator, single point]"}
{"molecule": "C[C@@H]1CN([C@H](C)CO)C(=O)CCCn2cc(nn2)CO[C@H]1CN(C)S(=O)(=O)c1ccc(Oc2ccccc2)cc1", "Potency": "inconclusive [activator, single point]"}
{"molecule": "O=C(NCCSc1c[nH]c2ccccc12)c1c(F)cccc1F", "Potency": "inconclusive [activator, single point]"}
{"molecule": "Cc1ccc(NC(=O)CSc2nc3ccccc3nc2N2CCOCC2)cc1", "Potency": "inactive"}
{"molecule": "CCCCCCN1C[C@H](n2cc(-c3ccc(F)cc3)nn2)[C@@H](O)C[C@@H]1c1ccc(Cl)cc1", "growth rescue (activation)": "inconclusive: -43.9% [activator]"}
{"molecule": "COc1ccc(/C=C/C(=O)C(C)(C)C)cc1OC", "Potency": "inconclusive [activator, single point]"}
{"molecule": "O=C(OCc1nc2ccsc2c(=O)[nH]1)c1ccc(Cl)nc1", "Potency": "inactive"}
{"molecule": "COc1ccc(C2CC(=O)N(Cc3cccc(F)c3)c3ccccc3S2)cc1", "note": "(stereo not drawn)", "Potency": "inconclusive [activator, single point]"}
{"molecule": "Cn1c(=NC(=O)C2CC2)sc2cccc(F)c21", "Potency": "inconclusive [activator, single point]"}
{"molecule": "CC(C)CC(=O)Nc1sc2c(c1C(=O)O)CCCCC2", "Potency": "inactive"}
{"molecule": "COC(=O)[C@@]1(Cc2ccc(F)cc2)[C@H]2c3cc(C(=O)N(C)C)n(Cc4ccc(C)c(F)c4F)c3C[C@H]2CN1C(=O)c1ccccc1", "Potency": "inconclusive [activator, single point]"}
{"molecule": "CC(C)c1nc2sc3c(SCC(=O)NCc4ccco4)ncnc3c2c2c1CCC2", "Potency": "inactive"}
{"molecule": "O=C1N/C(=N\\N=C\\c2cccnc2)SC1Cc1ccc(SC(F)F)cc1", "note": "(stereo not drawn)", "Potency": "inconclusive [activator, full curve]"}
{"molecule": "COc1ccc2[nH]c3c(c2c1)CCN1C(=O)N([C@@H](C)C(=O)NCCc2ccc(F)cc2)C(=O)[C@]31C", "Potency": "inconclusive [activator, partial curve]"}
{"molecule": "CCn1c(SCC(=O)N/N=C/c2ccc(C)o2)nnc1-c1ccc(C(C)(C)C)cc1", "Potency": "inactive"}
{"molecule": "COc1ccc(N2C(=O)CSC23C(=O)N2c4c(cccc43)C(C)=CC2(C)C)cc1", "note": "(stereo not drawn)", "Potency": "active: 15.8 µM"}
{"molecule": "COc1cccc(-c2cc(C(=O)N3CCCc4ccccc43)no2)c1", "Potency": "inactive"}
{"molecule": "COc1cccc(NC(=S)NC(=O)c2cncc(Br)c2)c1", "Potency": "inactive"}
{"molecule": "C[C@H](NC(=O)NCc1ccc(F)cc1)C(=O)O", "Potency": "inconclusive [activator, single point]"}
{"molecule": "CCOC(=O)c1sc2nc(N3CCOCC3)c3c(c2c1N)CC(C)(C)N(C)C3", "Potency": "inactive"}
{"molecule": "O=C(NCc1ccco1)c1sc2cc(Cl)ccc2c1Cl", "Potency": "inconclusive [activator, single point]"}
{"molecule": "C=CCn1c(SCc2ccccc2F)nc2cc(C(=O)O)ccc2c1=O", "Potency": "inconclusive [activator, single point]"}
{"molecule": "CCC[n+]1c2ccccc2cc2ccccc21", "Potency": "inactive"}
{"molecule": "CCOC(=O)C1=CCN(S(=O)(=O)c2ccc(C)cc2)C1c1cccs1", "note": "(stereo not drawn)", "Potency": "inconclusive [activator, single point]"}
{"molecule": "CC1(Cc2ccc(Cl)cc2)C(=O)Nc2c(Cl)ccc(Cl)c21", "note": "(stereo not drawn)", "Potency": "inconclusive [activator, partial curve]"}
{"molecule": "CCC(C)NC(=O)C(NS(=O)(=O)c1cccc2nsnc12)c1ccccc1", "note": "(stereo not drawn)", "Potency": "inactive"}
{"molecule": "Cc1nc(-c2ccc(S(=O)(=O)Nc3ccc(Cl)c(C(F)(F)F)c3)cc2)co1", "Potency": "inactive"}
{"molecule": "CCN(CC)CCOC(=O)c1ccc(NC(=O)c2cc3c(s2)-c2ccccc2OC3)cc1", "Potency": "inactive"}
{"molecule": "C[N+]1(CC(=O)c2cccs2)CCOCC1", "Potency": "inactive"}
{"molecule": "CCOc1ccc(S(=O)(=O)N2CCCCC2)cc1NC(=O)C1CCC1", "Potency": "inactive"}
{"molecule": "CCn1c(=O)c2cc(C(=O)N(C)c3cc(C)ccc3OC)sc2c2ccccc21", "Potency": "inconclusive [activator, single point]"}
{"molecule": "CCOC(=O)Nc1cccc(NC(=O)c2ccccc2F)c1", "Potency": "inconclusive [activator, single point]"}
{"molecule": "Cc1ccc(-n2nc3c(c2NC(=O)C(C)C)CS(=O)(=O)C3)cc1", "Potency": "inconclusive [activator, single point]"}
{"molecule": "C/C(=N\\Nc1cc(C)nc(-c2ccccc2O)n1)c1ccccc1O", "Potency": "inactive"}
{"molecule": "COc1cccc(-c2c(C#N)c(N)nc3c2c(C)nn3-c2ccccc2)c1O", "Potency": "inconclusive [activator, single point]"}
{"molecule": "CN(C)/[N+]([O-])=N/Oc1ccc([N+](=O)[O-])cc1C(F)(F)F", "Potency": "inactive"}
{"molecule": "Oc1ccc(N=Nc2nccs2)c(O)c1", "Potency": "active: 2.24 µM"}
{"molecule": "COc1cc(C=CC(=O)c2ccccc2)cc(OC)c1OC", "Potency": "inconclusive [activator, single point]"}
